# ± gives the standard deviation of the averaged measurements. Some of the results follow.
# Test system: PfAP2-I AP2 domain 3 (GST-tagged)
# Assay: gcPBM binding intensity (ln(normalized median fluorescence intensity)); higher = stronger DNA binding
# Summary of the method: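 GST-fused DNA-binding domains of P. falciparum, expressed in E. coli, were applied at about 25 μg on average for 1 h to an Agilent 4 × 180k array of primer-extended double-stranded 36-bp intergenic genomic probes and negative controls. Binding intensity is the highest Masliner-normalised natural-log median intensity across replicate spots of either probe orientation, measured with Alexa488 anti-GST antibody and a 488 nm scan.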
row,Sequence,gcPBM binding intensity (ln)
1,TAAATATATATATATGTACACACTCCAATACATATA [CACACA_site8858],7.88 ± 0.39
2,ACTTTATATTTTGAACGTACAAAAAAAAAATTATGT [XGTACX_site5588],8.11 ± 0.28
3,AACCATTAATTCTCTACACACTTTTATTTTATTTAG [CACACA_site1769],8.11 ± 0.44
4,GCACATATATACATACATACATACATACATATGTAT [TGCATGCA_negctrl_site95],8.07 ± 0.83
5,ATATTTATAACTTGTACACACAAATATGCATATATA [CACACA_site7583],8.27 ± 0.52
6,TTATTATTCCCTCATTTTGTTACCATTATTTCAATT [CACACA_negctrl_site1023],8.05 ± 0.68
7,TTAAAATTTTTTTTTTTTTTTTTTTTTTTTTTTTTC [CACACA_negctrl_site957],7.64 ± 0.2
8,TTGTTAAAATTATTAAGTTAAATATCGATTTGTAAA [XGTACX_negctrl_site429],7.3 ± 0.47
9,TATAAGTTTATATATACACACATATATATATATATA [CACACA_site3274],9.49 ± 0.68
10,AAAAAAAAAAAAAACACACACACAAATACAAATACA [CACACA_site414],8.4 ± 0.44
11,ATAAATAATTGTAGTTGTACATGATATTTTTATTAC [XGTACX_site550],7.65 ± 0.42
12,TACAAAAAAAGATGATGTACAATGAAAAATAAGAAA [XGTACX_site5840],8.1 ± 0.73
13,AAATGGACCTAATTATCACACATTATACTCGTTTTC [CACACA_site5996],7.62 ± 0.57
14,ATATATCATAATAAAAGTACTTATATATTTTATATA [XGTACX_site560],7.59 ± 0.33
15,AAAATAAATAAATATACACACCATATATATATTTTT [CACACA_site5573],7.61 ± 0.39
16,TTATATAATCCTTTCAAACACACAAAATATAATTAA [CACACA_site1830],7.75 ± 0.45
17,AGTGAAAAAAAATTTACACACATAAAATATAAACGA [CACACA_site3724],7.99 ± 0.79
18,TTTTTAGTTCATTAAACACACAAAAAAAAAAATAAA [CACACA_site6035],7.68 ± 0.27
19,TTTTTTATTCTTTTTGCACACAGGAAATTTACAGAT [CACACA_site1090],9.94 ± 0.13
20,TAATACTTTTAATCTACACACGCTGAGACATGCTTT [CACACA_site1484],7.54 ± 0.56
21,AAAAAAAATATAAGTGGTACTCACATAAAGACATAT [XGTACX_site3709],7.99 ± 0.48
22,AAATAAAATACATATAAACACACATATAAACCAACA [CACACA_site8789],8.1 ± 0.36

row,Sequence,gcPBM binding intensity (ln)
1,AAAATAAAAAGAAAAAATAAAAAGAAAAAATAAAAA [CACACA_negctrl_site120],7.33 ± 0.78
2,AATAAAATAATAGGCACACATATATATATATATTAT [CACACA_site273],8.05 ± 0.42
3,ATATCCTACTTCTAGTGTACATATATGGACTGATGA [XGTACX_site3683],8.16 ± 0.62
4,ATATATCTACATATATGTACATATATGTATATGTAT [XGTACX_site5432],7.86 ± 0.48
5,TACAATTTATGACACACACACAATAATACCTATATA [CACACA_site6704],7.94 ± 0.42
6,TATATATATATATGTGCACACATAAAGATATTATTT [CACACA_site3734],10.18 ± 0.021
7,AAAAAAAAAAAACACACACACACACTAGTACATACA [CACACA_site4551],8.13 ± 0.085
8,TTTTTAATACAAAAAAAATAATATGTTATATTTCAA [CACACA_negctrl_site35],7.34 ± 0.33
9,ATGAAATATGCACAGTGTACTTTTATGAGGAACATA [XGTACX_site426],9.045 ± 0.064
10,GGGAATATATAAGATACACACACAAATTAAATATAA [CACACA_site8898],7.75 ± 0.52
11,TGCCCTTTGGTTATAACACACATGCACACGTAAATA [CACACA_site7750],8.87 ± 0.34
12,AATTAACCGTGACACACACACATATAAATATAAATA [CACACA_site7790],8.45 ± 0.69
13,TATATATATATATATACACACACACCCACCAAAGCG [CACACA_site7904],9.41 ± 0.32
14,AAAATGTACTTTTTCTAAAGAGTAATGATGCTTGAT [CACACA_negctrl_site1124],7.61 ± 0.54
15,TTTAACGTTGAATATACACACATATATTTATTTATA [CACACA_site7695],7.47 ± 0.54
16,AATCCTTTAAAACACACACACAAAAAAAAAAAAAAA [CACACA_site642],8.11 ± 0.48
17,TGCTTCATAAATAAAACATGCAATATAGAAATTAAA [TGCATGCA_site690],7.79 ± 0.83
18,TATAGTAAAATTAGGGTGCTTTTGTAACAAAAAAAA,9.485 ± 0.092
19,TTATTTTCTTTCTATGCACACGCACGTATTTGCCCA [CACACA_site9104],9.39 ± 0.16
20,AGAGTAGGAAATGGAAAAATAAAATAAATAAATAAA [XGTACX_negctrl_site69],7.86 ± 0.8
21,AAATATATATACCACACACACATACCTCTATTTGTA [CACACA_site1854],8.02 ± 0.51
22,AATAAAAAAATAAAAAAAAAAAAAAATAAAAAAAAA [GTGCAC_negctrl_site12],7.58 ± 0.77

row,Sequence,gcPBM binding intensity (ln)
1,CGTATTTTAATATTTACACACTTATTTTTTATATAA [CACACA_site125],7.94 ± 0.44
2,TTTTGTAAAAGGTATATATATATATATATATATATA [GTGCAC_negctrl_site734],9.45 ± 0.69
3,TTTATATAGAAAAATTGTACGAATTACTTTTTTATA [XGTACX_site6843],7.38 ± 0.28
4,TATAGCATATTTCACACACACATAATGAATATTATA [CACACA_site3545],7.7 ± 0.45
5,AATGGGTAAACATACACACACACATCTATATTTATA [CACACA_site7025],7.67 ± 0.61
6,TAACAAGGTTTATATGCATGCAAACATAACCAAAAA [TGCATGCA_site824],7.92 ± 0.76
7,TACTATATCATTTATTGTACAATATTTCTTCAGAAA [XGTACX_site1008],7.76 ± 0.51
8,CTTTGCCTTAAAAAGGAACACACATGCTTTTTTTAG [CACACA_site8219],7.8 ± 0.72
9,TATAAAAGACTAAATATTATAGAAATATAAATATAA [TGCATGCA_negctrl_site237],7.29 ± 0.32
10,AAACAGATAAATAAAAGTACACATTAAAAGGTAGCA [XGTACX_site4150],7.88 ± 0.47
11,ATATATATGTATAATCGTACAGTTAACGTATTCTTA [XGTACX_site5649],7.74 ± 0.4
12,TAATTAATTTCTTTACGTACATAATTAATATATATA [XGTACX_site7372],8.02 ± 0.35
13,GGATTTTAATGAACACGTACATAAAATTAAATAAAT [XGTACX_site7023],7.87 ± 0.54
14,GGTTCATAATATGGTTGTACATAAATATATATATAT [XGTACX_site7583],9.36 ± 0.28
15,GGGAGGATAGTTCACAGTACCCAGGAAATCTACGGA [XGTACX_site2553],7.88 ± 0.26
16,ATTACAATAAATTCGTGTACATGATACCGCCGCTAC [XGTACX_site8997],7.88 ± 0.61
17,ATCAAATTTTTGTTATGTACACAATCATTTAATAAA [XGTACX_site810],7.79 ± 0.57
18,CACAAATAAATATTCACACATATATGTCTTATATAT [CACACA_site5323],7.52 ± 0.38
19,AAAAAAAAAAAATAGGTGCGTGTTACTTTTGTATGC [GTGCAC_site9524],8.35 ± 0.46
20,TAATTATTATTAAATACACACACATACCTCCATGTT [CACACA_site9134],7.71 ± 0.5
21,TATATATATATATATGTGCGCATATATTTTTTTGTA [GTGCAC_site9983],9.59 ± 0.25
22,ACAAAATTTACAAAATGTACAAAATATACAAAATAT [XGTACX_site6465],7.68 ± 0.59

row,Sequence,gcPBM binding intensity (ln)
1,TATTCTTATATATATACACACACAAAATATCTACAA [CACACA_site8144],7.91 ± 0.47
2,TTGCATTGATCAAACATACACACATGGTTAATAAAA [CACACA_site2084],7.89 ± 0.52
3,AATAATATACATATATATATTATATTGTAATTTTGT [TGCATGCA_negctrl_site1],7.38 ± 0.51
4,ACTAGACAAAATATAATGCACACTATTATTTTTATT [CACACA_site2726],10.9 ± 0.65
5,TTATATCAAGGGAATGCATGCATATCGTTTTGTATT [TGCATGCA_site327],7.68 ± 0.88
6,CATGAGGTATAAAAGGTGCAAATTAATGAGAACATT,11.1 ± 0.36
7,TATTTCTCACTGTATGGTACAGATATAAATTTTTAT [XGTACX_site8776],7.83 ± 0.46
8,TATAAAATAAAAAATAAATATCTATATATATATATA [TGCATGCA_negctrl_site351],9.21 ± 0.4
9,TTGTGTTATCCTTTTTTAGATCAACTATTTTTATTC [CACACA_negctrl_site145],7.75 ± 0.61
10,ATAAAGCACACCGACACACACATATTTATATTTATA [CACACA_site6620],9.82 ± 0.5
11,ATTTATAAAATTAATGCACACATCAGCATTTATAAA [CACACA_site1025],11.3 ± 0.79
12,TAAATACATAGATGTACACACATTACAGATGTACAT [CACACA_site4692],7.83 ± 0.38
13,TTTATACATTTATATTGTACTAATTCGATTTTATAT [XGTACX_site5424],7.76 ± 0.42
14,AAAGAAAAAGAAAAAGAAAAATTAGAATATAAAATA [CACACA_negctrl_site792],7.08 ± 0.75
15,AATGATCATATATACACACACACAAAAAAAAAAAAA [CACACA_site4009],8.06 ± 0.69
16,ATAAGAAATGTAACTTGTACATAAGGATATATATTT [XGTACX_site236],7.66 ± 0.47
17,CATTTATATAAATACACACACACAAAAAAAAAAAAA [CACACA_site5459],8.03 ± 0.5
18,TAATAATAAAAAAATAGTACATAAATAAAAATAATA [XGTACX_site4774],7.73 ± 0.38
19,TTTTTTTTTTTAAGTTCACACATAAATTCGATTTAC [CACACA_site5057],7.92 ± 0.7
20,ACCGTTTTTGTGTAATGTACAAAATTTCTGACAGTG [XGTACX_site4999],7.91 ± 0.7
21,ATAATTTGTAAAAGGAGTACAAAACCATACTTTTTT [XGTACX_site6076],7.87 ± 0.33
22,AAAGGAAAATTAAAAAGTACACATTTGAAAAAAAAA [XGTACX_site2724],8.01 ± 0.41

# Source: the supplement of paper PMC11417369
